The values below come from PubChem BioAssay AID488969 (Vanderbilt High Throughput Screening Facility, 2010).

The full ranking holds about 110,000 compounds; the median of “z-score” is about -0.1, and the highest 2% start at about 2. This is one part of the list.

The target of this test is Metabotropic glutamate receptor 8 (Rattus norvegicus) (UniProt P70579). Nature of the test: mGluR8 Gi/Go-coupled signaling modulation – cell-based, rat, thallium flux, HTS, primary screen (AID 488969). The following applies: HEK293 rat mGluR8, GIRK (G protein-gated inwardly rectifying potassium channel) thallium flux, FluoZin2; at 10 µM; stronger effect = higher value; submaximal glutamate (EC20) added with thallium.
Sequence of UniProt P70579 (P70579 whole entry, looked up): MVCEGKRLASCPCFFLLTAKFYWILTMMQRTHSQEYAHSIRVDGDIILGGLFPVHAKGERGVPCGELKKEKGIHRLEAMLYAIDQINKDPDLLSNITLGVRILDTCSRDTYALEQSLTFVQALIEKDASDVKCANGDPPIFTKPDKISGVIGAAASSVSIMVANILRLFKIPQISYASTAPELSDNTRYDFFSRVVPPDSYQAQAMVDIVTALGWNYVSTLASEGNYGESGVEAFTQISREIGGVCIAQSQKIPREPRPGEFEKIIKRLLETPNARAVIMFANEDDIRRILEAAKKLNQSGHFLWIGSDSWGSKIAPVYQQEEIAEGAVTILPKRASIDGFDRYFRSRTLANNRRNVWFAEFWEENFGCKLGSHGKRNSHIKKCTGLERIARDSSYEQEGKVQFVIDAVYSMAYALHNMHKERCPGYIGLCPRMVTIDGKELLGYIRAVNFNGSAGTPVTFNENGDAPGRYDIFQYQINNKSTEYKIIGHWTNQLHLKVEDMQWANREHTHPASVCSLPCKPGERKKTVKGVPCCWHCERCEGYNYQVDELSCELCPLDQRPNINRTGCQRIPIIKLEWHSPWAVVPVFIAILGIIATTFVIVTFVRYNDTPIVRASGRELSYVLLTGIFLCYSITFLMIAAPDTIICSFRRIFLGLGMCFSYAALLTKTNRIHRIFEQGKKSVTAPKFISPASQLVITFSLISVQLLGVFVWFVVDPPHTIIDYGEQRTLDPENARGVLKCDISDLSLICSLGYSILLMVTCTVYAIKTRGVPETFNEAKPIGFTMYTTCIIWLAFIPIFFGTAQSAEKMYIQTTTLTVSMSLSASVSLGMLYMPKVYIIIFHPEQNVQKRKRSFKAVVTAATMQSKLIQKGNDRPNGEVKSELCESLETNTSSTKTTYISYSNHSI
In the case of `Nc1ccccc1C(=O)NNc1ncc(C(F)(F)F)cc1Cl`, the z-score worked out at 0.251. Next, `COCc1nnc(NC(=O)c2ccco2)s1`: 0.76. Compound `CCOC1(OCC)C(c2ccc(Cl)cc2)C(C#N)(C#N)C1(OCC)OCC` (centres undefined) had a z-score of -0.0787. In the case of `COc1ccc(OC)c(C(c2nnnn2Cc2ccccc2)N2CCC(C(N)=O)CC2)c1` (centres undefined), the z-score was 0.581. `Cc1cccc(N(C(=O)c2nsc(Cl)c2Cl)C(C(=O)NC2CCCC2)c2ccc(O)cc2)c1` (centres undefined): the z-score was -0.237. `CCOC(=O)C(CCCCOc1ccc([N+](=O)[O-])cc1)C(=O)OCC` registered a z-score of -0.0991. Regarding `COc1ccc(S(=O)(=O)N2c3cc(C)ccc3OCC2C(C)(C)C)cc1` (centres undefined), the z-score is -0.442. `Cc1cc(NCCCCO)n2c(nc3ccccc32)c1C#N` came in with a z-score of -0.387. `C=CCOc1c(Br)cc(/C=N/NC(=O)Cc2ccc(C(F)(F)F)cc2[N+](=O)[O-])cc1OC`: the z-score was -0.148.

`CCc1nnc(NC(=O)c2ccc(S(=O)(=O)N(CCOC)CCOC)cc2)s1` returned a z-score of -0.106.

In the case of `CCOC(=O)N1CCN(c2cc(=O)n(-c3ccccc3Cl)c(=O)[nH]2)CC1`, the z-score was -0.091. The compound `COC(=O)c1sccc1NC(=O)C12CC3CC(CC(C3)C1)C2` showed a z-score of -0.00272. `CCc1cccc2c(=O)c(C(=O)N3CCCCCC3)c[nH]c12` gave a z-score of -0.527.

`Cc1ccc(N=C2NC(=O)S/C2=C\c2ccco2)cc1`: the z-score is -0.4. Next, `COc1ccc(C(=O)NC(C)(C)C)cc1S(=O)(=O)N1CCCC1`: -0.0729; `COCC(=O)N(Cc1cc2ccccc2[nH]c1=O)c1ccccc1OC`: 0.039. Next, `O=C(CSCc1ccccc1)Nc1ccc2c(c1)OCO2`: 0.244; `COc1cc(OC)c(OC)cc1CN1CCN(S(=O)(=O)c2ccc(F)cc2)CC1`: -0.145; `C=CCNC(=O)CC(=O)N/N=C/c1ccc(C(=O)OC)cc1`: -0.131. `Cc1ccc(C(=O)N/N=C2\SCC(=O)N2c2cc(C)ccc2C)cc1` displayed a z-score of -0.396.

In the case of `Cc1c(NC(=O)c2c(F)c(F)c(F)c(F)c2F)c(=O)n(-c2ccccc2)n1C`, the z-score is -0.189.

`CCOC(=O)c1sc(NC(=O)COC(=O)C(CCSC)NC(C)=O)nc1C` (centres undefined) displayed a z-score of 0.313. As for `O=C(Cn1c(C(=O)N2CCN(C3CCCCC3)CC2)cc2sccc21)c1ccccc1`, the z-score was 0.45. Regarding `Cc1nnc(SC(C)C(=O)Nc2ccc3c(c2)OCCO3)s1` (centres undefined), the z-score was -0.277. With `C=CCNC(=O)c1cc(-c2ccccc2O)on1`, the z-score came to 0.366. Regarding `CCN(CC)C(=O)C1CCCN(c2ccc([N+](=O)[O-])cc2/C=N/NC(=O)c2cccc([N+](=O)[O-])c2)C1` (centres undefined), the z-score was -0.835.

For `CN(C(=O)CCCN1C(=O)c2cccc3cccc(c23)C1=O)c1ccccc1`, the z-score was -0.275. Take `Cc1ccc(Cn2nnc3c(=O)n(CC(=O)NCC4CCCO4)cnc32)cc1` (centres undefined): the z-score is -0.0187. With `Cc1cc(N2CCOCC2)c2c(N)cc(C)c(C)c2n1`, the z-score came out at 0.00567.

For the compound `CC(=O)n1cc(Nc2ccccc2C(=O)O)c2ccccc21`, the z-score is -1.18. Next, `CCOc1ccccc1NC(=O)CCN1CCN(S(=O)(=O)c2ccc(Br)cc2)CC1`: -0.171; `Cc1ccc(NC(=O)Cc2c[nH]c3ccccc23)cc1S(=O)(=O)N1CCCCCC1`: 0.141; `COc1cc2c(c(O)c1OC)C(=O)C(OC)CCC2` (centres undefined): -0.015. `Cc1cccc(C)c1NC(=O)C1(N(Cc2ccco2)C(=O)CC2NC(=O)NC2=O)CCCC1` (centres undefined) had a z-score of -0.134. Next, `Cc1nc(CS(=O)c2ccc(Cl)cc2)cc(NCc2ccc(Cl)cc2Cl)n1` (centres undefined): 0.31; `COc1ccccc1Nc1nc2c(C)cccc2cc1C#N`: -0.118; `COC(=O)c1cn(CCOc2ccccc2F)c2ccccc12`: -0.0507. Next, `Cc1cc(C(=O)CSc2nnc(-c3cccc(F)c3)n2N)c(C)n1Cc1ccc2c(c1)OCO2`: 0.452; `CC(C)NC(=O)COC(=O)/C=C/c1ccc(F)cc1`: -0.158; `CCOCCCNS(=O)(=O)c1ccccc1`: 0.319. Next, `COc1ccc(-n2nc(C(=O)c3cccs3)cc(-c3nc4ccccc4[nH]3)c2=N)cc1`: -0.129; `COC(=O)N(NC(=O)C(O)(c1ccccc1)c1ccccc1)c1ccccc1`: -0.0551; `CCCOC(=O)c1cccc(NC(=O)c2cccnc2)c1`: -0.642.

`O=C(Oc1c(-c2ccccc2Cl)oc2ccccc2c1=O)c1ccc(Cl)cc1` returned a z-score of -0.473.

In turn, `CC1Cc2ccccc2N1CC(=O)NCc1ccc2c(c1)OCO2` (centres undefined) yielded a z-score of -0.0574. Next, `COc1ccc(-c2nnn(CC(=O)OC3CCCCC3)n2)cc1OC`: -0.907. Next, `Cc1nn(Cc2ccc(Cl)cc2Cl)c(Cl)c1/C=N/NC(=O)CNc1cccc(C(F)(F)F)c1`: -0.087; `Cc1cccc2cc(CN(CCN(C)C)C(=S)NCc3ccco3)c(=O)[nH]c12`: -0.185. Take `COc1ccccc1NC(=S)NNC(=O)c1nn(C)c(C)c1Cl`: the z-score was -0.229.

Take `CC1CCc2cc(F)ccc2N1C(=O)CSc1nnc2c(n1)[nH]c1ccc(F)cc12` (centres undefined): the z-score was -0.403. Compound `CCOC(=O)N1CCN(C(=O)C2CCN(Cc3ccc(OC)cc3OC)CC2)CC1` showed a z-score of 0.0344. Next, `COc1ccc(CN2C(=O)c3ccccc3C(/C=N/OCc3ccc(Cl)cc3)C2=O)cc1` (centres undefined): 0.378; `N#Cc1nc(Cc2ccccc2)oc1NCCc1ccccc1`: -1.85. Take `COCC(=O)N(Cc1nc2ccccc2c(=O)[nH]1)Cc1cccs1`: the z-score is 0.604. The compound `CC(C)C[C@H](NC(=O)NCCc1ccc(Cl)cc1)C(=O)O` gave a z-score of 2.58. As to `COc1ccc2c(-c3ccccc3)cc(SCC(=O)N(C)C3CCS(=O)(=O)C3)nc2c1` (centres undefined), the z-score worked out at 2.36. Next, `CC(CN1CCOCC1)(NS(=O)(=O)c1ccccc1)c1ccccc1` (centres undefined): -0.0802. `Fc1cccc2sc(Nc3nc4ccccc4s3)nc12` came in with a z-score of 2.21. Next, `CCOC(=O)c1cccc(NC(=O)CCc2nc(-c3ccc(C)cc3)no2)c1`: -0.79; `COCC(C)NC(=O)c1ccccc1OC(C)=O` (centres undefined): -0.44. In the case of `Cc1ccc2cc(CN(Cc3cccs3)Cc3nnnn3CC3CCCO3)c(=O)[nH]c2c1` (centres undefined), the z-score is -0.0837.

With `Cc1oc(-c2cccc(Cl)c2)nc1CSCC(=O)O`, the z-score is -0.753. Next, `N#Cc1c(NC(=O)C2CC(c3ccccc3O)=NO2)sc2c1CCC2` (centres undefined): -0.0566.

The compound `Cc1cccc(Cn2c(NCC(C)O)nc3c2c(=O)n(C)c(=O)n3C)c1` (centres undefined) had a z-score of 0.143. `Cc1ccc(C2=[N+]([O-])C(C)(C)N(O)C2(C)C)cc1` showed a z-score of -0.258. Next, `Cn1c(-c2ccccc2)cnc1SCC(=O)N1CCCCC1`: -0.0912; `CC(C)(C)C(=O)OCCNc1nc(-c2ccccc2)nc2ccccc12`: -0.19; `c1ccc(C2CC(c3ccccc3)n3ncnc3N2)cc1` (centres undefined): 0.175. For `CCC(C)[C@@H](C(=O)NCC1CCC(C(=O)O)CC1)n1nnc2ccccc2c1=O` (some centres undefined), the z-score was -0.157.
